Measurements taken from the BET-seq Pho4 binding data (Le et al. 2018).
The other results are listed elsewhere or left out. These are noisy estimates, calculated here from bound and input reads.

Target: T1, Pho4 (S. cerevisiae) (UniProt P07270)
T1 sequence: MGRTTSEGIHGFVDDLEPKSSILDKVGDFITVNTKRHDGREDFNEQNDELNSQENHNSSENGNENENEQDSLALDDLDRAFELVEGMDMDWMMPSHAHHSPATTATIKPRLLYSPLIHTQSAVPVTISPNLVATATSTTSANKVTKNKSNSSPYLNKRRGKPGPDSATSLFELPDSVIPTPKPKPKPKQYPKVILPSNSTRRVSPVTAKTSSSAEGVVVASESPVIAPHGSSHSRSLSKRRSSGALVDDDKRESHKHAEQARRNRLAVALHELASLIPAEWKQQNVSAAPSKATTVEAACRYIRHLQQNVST
Assay: relative binding free energy (BET-seq); higher = weaker binding
Conditions: reference: library average

With GGTGCCACGTGTATAG as the sequence, how does the “relative binding free energy” value read?
Its value is 0.01 kcal/mol.

With ATTCACACGTGTGTTG as the sequence, how does the “relative binding free energy” value read?
The value was 0.04 kcal/mol.

With GCAGGCACGTGAGCGT as the sequence, how does the “relative binding free energy” value read?
Its value is 0.09 kcal/mol.

With TTGGGCACGTGATACG as the sequence, how does the “relative binding free energy” value read?
The value was -0.01 kcal/mol.

How did the “relative binding free energy” value turn out when GTGTTCACGTGAGGCA was run?
The value was 0.21 kcal/mol.

Which “relative binding free energy” value does the source give for AGGGGCACGTGGCGTC here?
The value was -0.26 kcal/mol.

With GAAGACACGTGGTAGG as the sequence, how does the “relative binding free energy” value read?
Its value is 0.02 kcal/mol.

How did the “relative binding free energy” value turn out when GTGTCCACGTGTTGTG was run?
Its value is 0.08 kcal/mol.

How did the “relative binding free energy” value turn out when TGGGGCACGTGCCGTG was run?
Its value is -0.28 kcal/mol.

How did the “relative binding free energy” value turn out when ATGGTCACGTGAGGTG was run?
The value was 0.21 kcal/mol.

GGTATCACGTGATAAT was tested. Which “relative binding free energy” value did it give?
Its value is 0.26 kcal/mol.

For ACGGTCACGTGGCTTG, which “relative binding free energy” value is on record?
Its value is -0.05 kcal/mol.

With TGTTACACGTGGCATT as the sequence, how does the “relative binding free energy” value read?
Its value is -0.05 kcal/mol.

For TTGGACACGTGGGAAA, which “relative binding free energy” value is on record?
Its value is 0.08 kcal/mol.

Which “relative binding free energy” value does the source give for ATAGTCACGTGTTGAA here?
Its value is 0.04 kcal/mol.

With GTGCACACGTGGCGGT as the sequence, how does the “relative binding free energy” value read?
The value was 0.01 kcal/mol.

Which “relative binding free energy” value does the source give for GTGGGCACGTGCATTC here?
Its value is 0.07 kcal/mol.

GTAGCCACGTGTGAGG was tested. Which “relative binding free energy” value did it give?
Its value is 0.04 kcal/mol.

For GGAATCACGTGAGTTA, which “relative binding free energy” value is on record?
The value was 0.26 kcal/mol.

Which “relative binding free energy” value does the source give for GGTAGCACGTGCGTGT here?
Its value is -0.12 kcal/mol.

CAGGTCACGTGTAAGG was tested. Which “relative binding free energy” value did it give?
Its value is 0.23 kcal/mol.

For GTTAACACGTGCTAGG, which “relative binding free energy” value is on record?
Its value is -0.04 kcal/mol.

For AGTAGCACGTGATTTG, which “relative binding free energy” value is on record?
The value was 0.09 kcal/mol.

Which “relative binding free energy” value does the source give for AAAGACACGTGAGTTG here?
The value was 0.28 kcal/mol.

For GCGTCCACGTGTGGGA, which “relative binding free energy” value is on record?
Its value is 0.12 kcal/mol.

With GTTTTCACGTGAATAC as the sequence, how does the “relative binding free energy” value read?
Its value is 0.58 kcal/mol.

With AGTGCCACGTGTGATT as the sequence, how does the “relative binding free energy” value read?
The value was 0.01 kcal/mol.

For AGGGACACGTGCGTTA, which “relative binding free energy” value is on record?
Its value is -0.05 kcal/mol.

For AGTGACACGTGTGATG, which “relative binding free energy” value is on record?
The value was 0.02 kcal/mol.

For CTGGACACGTGGGATT, which “relative binding free energy” value is on record?
Its value is 0.14 kcal/mol.

How did the “relative binding free energy” value turn out when GGTTACACGTGGGTCC was run?
Its value is 0.11 kcal/mol.

ATTATCACGTGCGTGA was tested. Which “relative binding free energy” value did it give?
The value was 0 kcal/mol.

AGGTTCACGTGTTAAA was tested. Which “relative binding free energy” value did it give?
The value was 0.35 kcal/mol.

How did the “relative binding free energy” value turn out when ATGGTCACGTGGCCTG was run?
The value was -0.08 kcal/mol.

Which “relative binding free energy” value does the source give for GATGGCACGTGGGGCG here?
Its value is -0.18 kcal/mol.

How did the “relative binding free energy” value turn out when TGCGTCACGTGTAGAG was run?
The value was -0.05 kcal/mol.

TATGTCACGTGTTATC was tested. Which “relative binding free energy” value did it give?
Its value is 0.19 kcal/mol.

How did the “relative binding free energy” value turn out when TGTACCACGTGTGGGG was run?
Its value is -0.11 kcal/mol.

For GTCTACACGTGAGAGT, which “relative binding free energy” value is on record?
The value was 0.46 kcal/mol.

With TATCTCACGTGTGGTG as the sequence, how does the “relative binding free energy” value read?
Its value is 0.17 kcal/mol.

For TGGCTCACGTGAAGAG, which “relative binding free energy” value is on record?
Its value is 0.39 kcal/mol.

Which “relative binding free energy” value does the source give for AAGGACACGTGTTTAG here?
Its value is 0.08 kcal/mol.

GGTGACACGTGGCTGT was tested. Which “relative binding free energy” value did it give?
Its value is -0.06 kcal/mol.

For CGGTTCACGTGATATT, which “relative binding free energy” value is on record?
Its value is 0.31 kcal/mol.

Which “relative binding free energy” value does the source give for TTGTTCACGTGTTTTC here?
The value was 0.28 kcal/mol.

GTCCGCACGTGTGGGG was tested. Which “relative binding free energy” value did it give?
The value was 0.04 kcal/mol.

TCTGTCACGTGAGTGG was tested. Which “relative binding free energy” value did it give?
Its value is 0.17 kcal/mol.

Which “relative binding free energy” value does the source give for TATGGCACGTGTATAT here?
The value was -0.09 kcal/mol.

With TTTAGCACGTGTTCGA as the sequence, how does the “relative binding free energy” value read?
The value was -0.11 kcal/mol.

How did the “relative binding free energy” value turn out when GTAGGCACGTGTGATA was run?
The value was -0.03 kcal/mol.

AGTATCACGTGGTCGG was tested. Which “relative binding free energy” value did it give?
Its value is 0.08 kcal/mol.

How did the “relative binding free energy” value turn out when AATTGCACGTGTATGA was run?
Its value is 0.04 kcal/mol.

How did the “relative binding free energy” value turn out when CTCTGCACGTGTATTG was run?
Its value is 0.01 kcal/mol.

How did the “relative binding free energy” value turn out when TTGGTCACGTGATTTA was run?
Its value is 0.19 kcal/mol.

With TTCTTCACGTGGTGTA as the sequence, how does the “relative binding free energy” value read?
The value was 0.12 kcal/mol.

With TGGTACACGTGTGGGA as the sequence, how does the “relative binding free energy” value read?
Its value is 0.03 kcal/mol.

How did the “relative binding free energy” value turn out when AAGAGCACGTGATTGT was run?
The value was 0.04 kcal/mol.

Which “relative binding free energy” value does the source give for GGAATCACGTGGGAGA here?
The value was 0.09 kcal/mol.

Which “relative binding free energy” value does the source give for GAGCGCACGTGGTGGC here?
The value was -0.12 kcal/mol.

TGCAACACGTGTAGTG was tested. Which “relative binding free energy” value did it give?
The value was 0 kcal/mol.

How did the “relative binding free energy” value turn out when ATAGGCACGTGGACGT was run?
Its value is -0.14 kcal/mol.

How did the “relative binding free energy” value turn out when ATAGACACGTGGTTGT was run?
Its value is -0.12 kcal/mol.

Which “relative binding free energy” value does the source give for CGGGTCACGTGCGTTA here?
Its value is 0.07 kcal/mol.
